# In PubChem BioAssay (NCATS):
# Values joined by “and” are separate entries in the source; they are usually repeats but may differ in a detail not shown here. Identical values can stand only once. Inconclusive means that the source gave no clear call. Such entries were picked first, then a sample of the others. For some assays here: Where the call is inconclusive, the potency comes from a doubtful curve fit. Active and inactive are the calls of the source. Unless noted, calls come from the whole dose curve; as a rule, active = well fitted curve in the direction sought with a large enough effect; inconclusive = small, poorly fitted or top-dose-only effect, or another doubt; inactive = no such curve, though single readings can be large; an effect the other way counts as inactive or inconclusive.
# Legend:
# [1] = Cell Viability - LYMP2-025 (AID 976);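 note: plate controls were DMSO only for no effect and tetraoctylammonium bromide control for full effect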
# How it was run: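 Seed 2500 LYMP2-025 cells/well; 5 hr at 37 C; add compound; 24 hr at 37 C; add CellTiter-Glo; 30 min RT; read luminescence. AC50 from Hill-modelled concentration-response.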
# [2] = qHTS of pediatric cancer cell lines to identify multiple opportunities for drug repurposing: Confirmatory screen for TC32 cells (AID 1347118);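 note: cells exposed to compound for 48 h before the read; % is set by controls: 0 for no effect and ±100 for the full control effect; nearly all actives have a fitted effect of over 65% in size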
# How it was run: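 Luminescent CellTiter-Glo read-out of metabolically active TC32 cells after 48 h compound exposure. Primary: MIPE 11-point, 0.78 nM–46 µM; NPC 8-point, 0.59 nM–46 µM. Confirmatory: 11-point dilutions.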
# [3] = Quantitative High-Throughput drug screen in 47 multiple myeloma cell lines against the NCATS MIPE library collection: ARD_JJKsccE7 cell viability assay (AID 1918929; note: potency is the fitted concentration of half-maximal effect)
# How it was run: (§1)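 Approved and investigational drugs from MIPE 4.0 were added by pin tool to 500 cells per well. After 48 hours at 37C, ATP-based CellTiter-Glo luminescence indicated remaining viability.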
# [4] = Quantitative High-Throughput drug screen in 47 multiple myeloma cell lines against the NCATS MIPE library collection: JJN3_DSMZ cell viability assay (AID 1918966; note: potency is the fitted concentration of half-maximal effect; nearly all actives have a fitted effect of over 50% in size)
# How it was run: as §1
# [5] = qHTS Assay for Identification of Small Molecule Agonists for Thrombopoietin (TPO) Signaling Pathway (AID 917); note: potency is the fitted concentration of half-maximal effect
# How it was run: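 Luminescence from a Glycoprotein IIb promoter–driven luciferase reporter served as read-out in murine Ba/F3 cells carrying the human TPO receptor. Cells, deprived of IL-3 overnight, received compounds with 26 pM TPO and were incubated 24 hrs at 37 C.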
# [6] = High Content Imaging Cell-Based qHTS for Inhibitors of the mTORC1 Signaling Pathway in MEF Cells (AID 2667); note: potency is the fitted concentration of half-maximal effect
# How it was run: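 WT MEFs (Tsc2-/-, p53-/- re-expressing Tsc2), in DMEM + 10% FBS, were treated with compound for 24 h at 37 C. Cells were then fixed and stained for phospho-rpS6 Ser235/236 with propidium iodide as cell count. Values are % positive cells, with thresholds set against rapamycin-treated cells.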
# [7] = Cytometry Cell-Based qHTS for Inhibitors of the mTORC1 Signaling Pathway in MEF cells (AID 2668); note: potency is the fitted concentration of half-maximal effect
# How it was run: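 Tsc2-/-, p53-/- MEFs re-expressing WT Tsc2; cpd 24 hrs, 37 degree Celsius; PFA fix, Alexa-488 p-rpS6 (Ser235/236) Ab 2 hrs RT, PI counterstain; Acumen 488nm scan; p-S6/PI ratio → % positive cells; PI count = viability.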
# [8] = target: D(1A) dopamine receptor (Homo sapiens) (UniProt P21728); test: HTS Assay for Allosteric Agonists of the Human D1 Dopamine Receptor: Primary Screen for Antagonists (AID 488983);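 note: calcium flux response to an EC80 dopamine challenge measured with no-wash dye; potency is the fitted concentration of half-maximal effect; nearly all actives have a fitted effect of over 65% in size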
# UniProt P21728, sequence (P21728 whole entry, looked up): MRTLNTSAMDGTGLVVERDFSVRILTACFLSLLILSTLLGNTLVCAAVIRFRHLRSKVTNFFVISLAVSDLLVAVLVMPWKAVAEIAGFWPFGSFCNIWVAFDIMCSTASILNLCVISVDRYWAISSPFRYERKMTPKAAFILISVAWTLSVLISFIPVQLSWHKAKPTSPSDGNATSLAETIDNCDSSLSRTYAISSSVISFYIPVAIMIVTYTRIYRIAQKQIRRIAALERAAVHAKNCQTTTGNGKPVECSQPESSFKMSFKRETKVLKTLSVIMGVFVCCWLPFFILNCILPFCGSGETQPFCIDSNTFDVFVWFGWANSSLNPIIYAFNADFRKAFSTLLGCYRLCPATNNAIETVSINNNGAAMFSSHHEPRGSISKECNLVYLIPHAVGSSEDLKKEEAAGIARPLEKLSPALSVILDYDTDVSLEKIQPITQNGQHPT
# How it was run: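 Cells are induced with tetracycline and incubated overnight at 30 C, then loaded with calcium dye for 30 to 90 minutes at room temperature. Compound addition is followed by a 180 s read, then an EC80 dopamine addition and another 180 s read.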
# [9] = target: DNA polymerase iota (Homo sapiens) (UniProt Q9UNA4); test: qHTS for Inhibitors of Polymerase Iota: Confirmatory Assay for Cherry-picked Compounds (AID 720496); conditions: Pol iota primer extension, TAMRA/BHQ fluorescence; at 114 µM (top of the series)
# UniProt Q9UNA4, sequence (Q9UNA4 whole entry, looked up): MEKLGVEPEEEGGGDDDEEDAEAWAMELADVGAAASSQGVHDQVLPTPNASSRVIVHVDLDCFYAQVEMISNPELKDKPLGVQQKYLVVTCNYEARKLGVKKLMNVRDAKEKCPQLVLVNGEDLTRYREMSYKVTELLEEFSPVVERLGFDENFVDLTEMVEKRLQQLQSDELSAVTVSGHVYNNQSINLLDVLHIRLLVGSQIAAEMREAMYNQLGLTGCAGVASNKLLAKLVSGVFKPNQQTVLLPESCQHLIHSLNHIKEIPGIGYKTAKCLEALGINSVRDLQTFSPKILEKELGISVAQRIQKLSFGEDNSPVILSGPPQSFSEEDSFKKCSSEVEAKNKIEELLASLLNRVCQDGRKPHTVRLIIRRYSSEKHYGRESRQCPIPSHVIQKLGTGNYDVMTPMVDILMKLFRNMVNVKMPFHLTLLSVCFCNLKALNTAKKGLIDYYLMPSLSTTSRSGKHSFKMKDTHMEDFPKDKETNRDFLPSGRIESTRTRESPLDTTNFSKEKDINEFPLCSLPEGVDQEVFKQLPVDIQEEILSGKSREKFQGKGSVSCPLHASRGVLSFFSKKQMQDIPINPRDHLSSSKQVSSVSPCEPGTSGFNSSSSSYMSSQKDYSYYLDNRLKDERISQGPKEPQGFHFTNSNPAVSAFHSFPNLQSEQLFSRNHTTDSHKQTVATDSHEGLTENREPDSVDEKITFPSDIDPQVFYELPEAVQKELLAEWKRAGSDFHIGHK
# How it was run: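 Recombinant human Pol iota (10 nM) was preincubated with compound for 15 min at room temperature, then 50 nM final primer/template substrate was added; the substrate carried a TAMRA-labeled reporter strand and a BHQ-2-quenched template. Fluorescence was read at 0 and 10 min.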
# [10] = Confirmatory screen NINDS Rhodamine qHTS for Zika virus inhibitors (AID 1347161); note: potency is the fitted concentration of half-maximal effect; nearly all actives have a fitted effect of over 60% in size
# How it was run: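 Enzyme (25 nM, linked NS2B-NS3) was preincubated 15 min with compound in 10 mM Tris-HCl pH 8.0, 0.01% Tween 20. Rhodamine110 substrate (1.5 microM) was then added and fluorescence read at start and after 15 min.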
# [11] = target: Rap guanine nucleotide exchange factor 4 (Homo sapiens) (UniProt Q8WZA2); test: Confirmatory qHTS for antagonist of cAMP-regulated guanine nucleotide exchange factor 4 (EPAC2) (AID 1645885); note: potency is the fitted concentration of half-maximal effect; nearly all actives have a fitted effect of over 25% in size
# UniProt Q8WZA2, sequence (Q8WZA2 whole entry, looked up): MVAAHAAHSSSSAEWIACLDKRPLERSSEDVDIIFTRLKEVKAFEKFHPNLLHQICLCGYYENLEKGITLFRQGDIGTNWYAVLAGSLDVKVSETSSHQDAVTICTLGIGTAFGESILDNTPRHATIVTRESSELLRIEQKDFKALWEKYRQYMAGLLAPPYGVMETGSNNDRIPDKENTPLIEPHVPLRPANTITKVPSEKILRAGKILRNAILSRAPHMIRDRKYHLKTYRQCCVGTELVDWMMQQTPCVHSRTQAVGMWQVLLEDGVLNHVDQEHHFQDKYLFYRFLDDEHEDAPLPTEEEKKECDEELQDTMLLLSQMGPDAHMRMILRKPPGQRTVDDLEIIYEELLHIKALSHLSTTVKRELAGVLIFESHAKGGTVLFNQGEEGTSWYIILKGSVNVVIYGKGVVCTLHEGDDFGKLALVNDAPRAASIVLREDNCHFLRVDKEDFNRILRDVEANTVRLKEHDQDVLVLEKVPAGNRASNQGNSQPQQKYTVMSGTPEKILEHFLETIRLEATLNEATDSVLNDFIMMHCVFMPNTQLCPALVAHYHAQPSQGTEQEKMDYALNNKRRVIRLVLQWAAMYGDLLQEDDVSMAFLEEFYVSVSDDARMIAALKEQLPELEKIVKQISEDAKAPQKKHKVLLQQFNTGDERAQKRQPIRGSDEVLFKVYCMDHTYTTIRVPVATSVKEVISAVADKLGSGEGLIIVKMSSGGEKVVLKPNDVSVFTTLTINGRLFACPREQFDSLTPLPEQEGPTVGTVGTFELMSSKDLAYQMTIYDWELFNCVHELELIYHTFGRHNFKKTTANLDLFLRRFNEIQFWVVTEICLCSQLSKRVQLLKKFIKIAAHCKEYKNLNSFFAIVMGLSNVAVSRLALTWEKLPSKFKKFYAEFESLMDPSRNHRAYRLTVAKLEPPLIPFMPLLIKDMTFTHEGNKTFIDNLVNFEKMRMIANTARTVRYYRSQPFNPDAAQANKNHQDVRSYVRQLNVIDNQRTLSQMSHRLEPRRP
# [12] = NCATS anti-infectives library activity on the primary C. elegans qHTS viability assay (AID 1745855; calls by dose curve; note: potency is the fitted concentration of half-maximal effect)
# How it was run: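 Viability read-out is GFP fluorescence of PE254-GFP-FLuc C. elegans, measured by laser cytometry (488 nm) at day 0, 3 and 7. Ten L1 worms per well were incubated 7 days at 21 °C with compounds and bacterial capsules in S medium.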
# [13] = Vero cells viability qHTS for Zika virus inhibitors (AID 1347167); note: potency is the fitted concentration of half-maximal effect
# How it was run: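 Cells seeded at 2.5 x 10^5 cells/mL in DMEM with 4% FBS and attached overnight at 37 degrees C, then exposed to compound for 24 to 48 hours. Viability read as ATP content by CellTiter Glo luminescence.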
# [14] = qHTS for differential inhibitors of proliferation of Plasmodium falciparum line GB4 (AID 1816); conditions: Potency: Plasmodium falciparum GB4 proliferation inhibition;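 note: potency is the fitted concentration of half-maximal effect; parasite growth measured after 72 h incubation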
# [15] = qHTS for differential inhibitors of proliferation of Plasmodium falciparum line HB3 (AID 1886); conditions: Potency: Plasmodium falciparum HB3 proliferation inhibition;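 note: potency is the fitted concentration of half-maximal effect; parasites grown with compound for 72 h before SYBR Green readout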
# [16] = Natriuretic polypeptide receptor (hNpr1) antagonism - Pilot counterscreen GloSensor control cell line (AID 1347045; calls by dose curve; note: % is set by controls: 0 for no effect and ±100 for the full control effect)
# How it was run: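 Luminescence was read before and 20 min after adding 50 uM SNP, which stimulates soluble guanylyl cyclase. The HEK293 cells expressing the GloSensor cGMP sensor had been preloaded with 2% reagent for 2 h and treated with compound.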
# [17] = target: Cytochrome P450 1A2 (Homo sapiens) (UniProt P05177); test: p450-cyp1a2 (AID 410; calls by dose curve; note: potency is the fitted concentration of half-maximal effect)
# UniProt P05177, sequence (P05177 whole entry, looked up): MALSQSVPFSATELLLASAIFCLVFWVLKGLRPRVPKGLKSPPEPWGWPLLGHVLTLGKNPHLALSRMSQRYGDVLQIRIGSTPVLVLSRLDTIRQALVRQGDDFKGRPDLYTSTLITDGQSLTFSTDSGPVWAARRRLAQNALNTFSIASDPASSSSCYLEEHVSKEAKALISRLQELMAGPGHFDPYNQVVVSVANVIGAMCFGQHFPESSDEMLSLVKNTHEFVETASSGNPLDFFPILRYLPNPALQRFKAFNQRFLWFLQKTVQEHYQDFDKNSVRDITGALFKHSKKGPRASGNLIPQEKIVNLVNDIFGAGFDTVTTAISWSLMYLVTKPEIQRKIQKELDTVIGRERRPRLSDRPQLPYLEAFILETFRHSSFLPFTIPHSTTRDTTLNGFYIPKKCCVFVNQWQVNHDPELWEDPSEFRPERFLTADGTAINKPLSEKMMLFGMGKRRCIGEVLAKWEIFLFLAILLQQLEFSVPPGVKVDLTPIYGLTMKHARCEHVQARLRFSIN
# How it was run: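 Luminescent readout of luciferin formed from Luciferin-ME by human CYP1A2; data normalized against complete inhibition by 57 uM furafylline. Enzyme 20nM, substrate 100uM at Km, 100mM KPO4 buffer, 60 min reaction at room temperature.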
# [18] = target: Mitogen-activated protein kinase 10 (Mus musculus) (UniProt Q61831); test: JNK3 AlphaScreen Assay (AID 530; active = well fitted curve in either direction with a large enough effect, not every such curve was filed as active; inconclusive = small, poorly fitted or top-dose-only effect, or another doubt;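 note: kinase came from lysate of stimulated human HepG2 cells; signal reports phosphorylation of biotinylated GST-cJun 1-79 at Ser73 with 10 µM ATP; potency is the fitted concentration of half-maximal effect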); conditions: JNK3 lysate, c-Jun phosphorylation; activity change, negative = inhibition: at 57.1 µM (top of the series)
# How it was run: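 Pre-activated (IL-1β/TNFα) JNK3 in HepG2 lysates phosphorylates biotin-GST-cJun(1-79), 10 uM ATP; anti-phospho-cJun(Ser73) AlphaScreen read at room temperature, pH 7.6 Tris buffer. Compounds pre-incubated 15 min as titrations.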
# [19] = qHTS for differential inhibitors of proliferation of Plasmodium falciparum line W2 (AID 1883); conditions: Potency: Plasmodium falciparum W2 proliferation inhibition;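 note: potency is the fitted concentration of half-maximal effect; parasites grown with compound for 72 h before lysis and staining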
# [20] = Validation screen for small molecules that induce DNA re-replication in MCF 10A normal breast cells (AID 463097); note: 0% is about no effect; nearly all actives have a fitted effect of over 60% in size
# How it was run: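 Image-based qHTS: normal breast cells are incubated with compound for 48 hr, stained with Hoechst, and scanned for total nuclear fluorescence. Compounds raising the fraction of nuclei with elevated DNA content count as re-replication inducers.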
# Tags give direction and shape of the fitted curve.
smiles,measurement,setting,value
Nc1cccc2c(N)cccc12,Potency,[1],inactive
N#Cc1c(C2CCNCC2)cc(-c2c(O)cccc2OCC2CC2)nc1N,Potency,[2],inactive
C[C@@H]1C[C@H]2[C@@H]3CCC4=CC(=O)C=C[C@]4(C)[C@@]3(Cl)[C@@H](O)C[C@]2(C)[C@@]1(OC(=O)c1ccco1)C(=O)CCl,Potency,[3],"inconclusive: 6.62 µM [cytotoxic, partial curve]"
same,Potency,[4],active: 2.35 µM
CNCCCN1c2ccccc2CCc2ccccc21,Potency,[5],"inconclusive: 12.6 µM [inhibitor, partial curve]"
same,Potency,[6],"inconclusive: 14.7 µM [falling, single point]"
same,Potency,[7],"inconclusive: 26.1 µM [falling, single point]"
same,Potency,[8],"inconclusive: 11.2 µM [inhibitor, partial curve]"
CC(C)(O)c1ccccc1CC[C@@H](SCC1(CC(=O)O)CC1)c1cccc(/C=C/c2ccc3ccc(Cl)cc3n2)c1,"activity change, negative = inhibition",[9],inconclusive: -51% [inhibitor]
same,Potency,[10],"inconclusive: 15.6 µM [inhibitor, full curve, poor fit]"
same,Potency,[11],"inconclusive: 17.5 µM [inhibitor, partial curve]"
COc1c(C)c2c(c(O)c1C/C=C(\C)CCC(=O)OCCN1CCOCC1)C(=O)OC2,Potency,[12],"inconclusive: 29 µM [inhibitor, single point]"
CCCCCCCCc1ccc(CCC(N)(CO)CO)cc1,Potency,[13],"inconclusive: 32.9 µM [cytotoxic, single point]"
CC(N=C(NC#N)Nc1ccncc1)C(C)(C)C (stereo not given),Potency,[14],"inconclusive: 14.1 µM [inhibitor, single point]"
same,Potency,[15],"inconclusive: 11.2 µM [inhibitor, partial curve]"
same,Potency,[16],inactive
O=C1NC(c2cccc([N+](=O)[O-])c2)=CCN1c1ccccc1O,Potency,[17],inconclusive: 15.8 µM [decreasing] and inconclusive: 31.6 µM [decreasing]
same,Potency,[18],"inconclusive: 31.6 nM [activator, full curve, poor fit]"
same,Potency,[19],"inconclusive: 12.6 µM [inhibitor, partial curve]"
same,Potency,[20],inactive
